Results from PubChem BioAssay AID662 (National Center for Advancing Translational Sciences (NCATS), 2007).
The campaign covered roughly 71,000 compounds. About 1,800 (2.5%) were called active. The shares of active, inactive and inconclusive entries below differ from those in the screen. The call rests on the fitted dose curve; in most records, active means well fitted activation curve with a large enough effect in the signal ratio, with a control signal flat (not every such curve was filed as active); inconclusive means small, poorly fitted or top-dose-only effect, or effect the other way, or a change in a side signal; inactive means flat fitted curve, though single readings scatter; the % refers to the signal ratio. Where the call is inconclusive, the potency comes from a doubtful curve fit.

Assay: Cell signaling CRE-BLA (Fsk stim); on activity change, negative = inhibition: % of control where 0% means no effect
Settings: CHO CRE-bla reporter (cAMP response element driving beta-lactamase), forskolin EC10, beta-lactamase ratio; activity change, negative = inhibition: at 38.2 µM (top of the series) unless noted
Summary of the method: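 qHTS titration format; CRE-bla CHO reporter; stimulus EC10 NKH 477, a water-soluble forskolin. Read: CCF4 460/530 nm ratio. Potency expressed as AC50 for activators or inhibitors.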
Potency means the concentration at half of the fitted maximal effect; tags describe the fitted curve by direction and shape.

Q: For CCC(=O)N(Cc1cc2c(C)cc(C)cc2[nH]c1=O)C1CCCCC1, which activity change, negative = inhibition is on record?
A: inactive

Q: For CCOC(=O)C1=C(C)N(C)C(=O)NC1c1cc2c(cc1Br)OCO2 (stereo not given), which activity change, negative = inhibition is on record?
A: inactive

Q: For COc1ccc2c3c(cccc13)NN=C2C, which activity change, negative = inhibition is on record?
A: inactive

Q: For COc1ccc2nc(SCC(=O)N3CCCCCC3)c(C#N)cc2c1, which Potency is on record?
A: inconclusive: 10 µM [rising, single point]

Q: For COc1ccccc1C(=O)Nc1ccccc1SC, which Potency is on record?
A: inconclusive: 20 µM [rising, single point]

Q: For Cc1nc(NC2CCCCC2)c2nc(-c3ccccc3)n(CC3CCN(C)CC3)c2n1, which activity change, negative = inhibition is on record?
A: inactive

Q: Which activity change, negative = inhibition does the source give for O=C(NCC1COc2ccccc2O1)c1c[nH]c2ccc(S(=O)(=O)N3CCOCC3)cc2c1=O (stereo not given) here?
A: inconclusive: -20.1%

Q: For O=C(Nc1ccc2c(c1)OCO2)C1CCCN(S(=O)(=O)Cc2ccccc2)C1 (stereo not given), which Potency is on record?
A: inconclusive: 12.6 µM [falling, single point]

Q: Which activity change, negative = inhibition does the source give for COc1cc(NC(=O)c2ccc(Br)o2)ccc1NC(=O)c1ccccc1Cl here?
A: inactive

Q: Which Potency does the source give for COc1cc(C(=O)OCC(=O)N(C)Cc2ccccc2)cc(OC)c1OC here?
A: inconclusive: 20 µM [rising, single point]

Q: With Cc1noc(C)c1S(=O)(=O)N1CCC(C(=O)N2CCN(Cc3ccc4c(c3)OCO4)CC2)CC1 as the molecule, how does the activity change, negative = inhibition read?
A: inactive

Q: With CCCSc1nc2c(cnn2-c2ccc(Cl)cc2)c(=O)[nH]1 as the molecule, how does the activity change, negative = inhibition read?
A: inconclusive: 10.2%

Q: For O=C(c1cccs1)N(Cc1ccco1)Cc1cc2ccccc2[nH]c1=O, which activity change, negative = inhibition is on record?
A: inactive

Q: With Brc1ccccc1-c1nnc(COc2ncnc3c2cnn3-c2ccccc2)o1 as the molecule, how does the Potency read?
A: inconclusive: 12.6 µM [rising, single point]

Q: With N#Cc1ccc(COc2ccc(CCO)cc2-n2nc3ccccc3n2)cc1 as the molecule, how does the Potency read?
A: inconclusive: 10 µM [rising, partial curve]

Q: Which activity change, negative = inhibition does the source give for COC1(c2cc(-c3ccccc3)nc(N)n2)CCCCC1 here?
A: inactive: 8.23% [at 7.6 µM]

Q: With c1ccc2c(-c3nc4ncccc4o3)cccc2c1 as the molecule, how does the activity change, negative = inhibition read?
A: inconclusive: 14.2%

Q: For Cc1cc(NC2C3CC4CC(C3)CC2C4)n2ncnc2n1 (stereo not given), which Potency is on record?
A: inconclusive: 6.31 µM [rising, partial curve]

Q: With Cc1c(C2CCN(CCc3ccccc3)CC2)noc1-c1ccc(Cl)cc1 as the molecule, how does the Potency read?
A: inconclusive: 2.51 µM [falling, full curve]

Q: With CCN1CC=C2C(C#N)=C(N)C(C#N)(C#N)C(CCc3ccccc3)C2C1 (stereo not given) as the molecule, how does the activity change, negative = inhibition read?
A: inactive

Q: For COC(=O)c1ccc2c(=O)n(CCN3CCOCC3)c(=S)[nH]c2c1, which activity change, negative = inhibition is on record?
A: inactive

Q: With COc1ccc(N(CC(=O)Nc2ccc3c(c2)OCO3)S(C)(=O)=O)c(OC)c1 as the molecule, how does the activity change, negative = inhibition read?
A: inconclusive: 12.2% [at 7.6 µM]

Q: Which activity change, negative = inhibition does the source give for Cc1ccc(CNC(=O)[C@H](C)[C@H]2C[C@]2(C)[C@H](NC(=O)OCc2ccccc2)c2ccccc2)o1 here?
A: inconclusive: -16.6%

Q: With CCSc1oc(-c2ccccc2)nc1S(=O)(=O)c1ccccc1 as the molecule, how does the Potency read?
A: inconclusive: 25.1 µM [rising, single point]

Q: Which Potency does the source give for CCN1C(=O)C(O)(C2COC(C)(C)CC2=O)c2cc(Br)ccc21 (stereo not given) here?
A: inconclusive: 12.6 µM [rising, single point]

Q: With CCOC(=O)N1CCC(N2CCN(c3cc(C)ccc3C)CC2)CC1 as the molecule, how does the Potency read?
A: inconclusive: 0.00316 µM [falling, full curve, poor fit]

Q: For Cn1nnnc1SCc1cn2cccnc2n1, which activity change, negative = inhibition is on record?
A: inactive

Q: With CCCCOc1ccc(-c2nc(-c3cccnc3)no2)cc1 as the molecule, how does the Potency read?
A: inconclusive: 1.58 µM [rising, partial curve]

Q: With CCCn1cnc2cc(NCc3cccc(OC)c3O)ccc21 as the molecule, how does the Potency read?
A: inconclusive: 25.1 µM [rising, single point]

Q: With COc1cccc(C2C(C#N)=C(N)Oc3c2oc(CO)cc3=O)c1OC (stereo not given) as the molecule, how does the activity change, negative = inhibition read?
A: inactive

Q: With Cc1sc2nc(C(C)Nc3ccccc3N3CCOCC3)[nH]c(=O)c2c1C (stereo not given) as the molecule, how does the Potency read?
A: inconclusive: 10 µM [rising, partial curve]

Q: For Cn1c(SCc2ccccc2)nnc1-c1ccncc1, which activity change, negative = inhibition is on record?
A: inconclusive: 1.75%

Q: For CCOC(=O)c1c(CC(C)C)csc1NC=O, which Potency is on record?
A: inconclusive: 10 µM [rising, partial curve]

Q: With Cn1cc(C(=O)c2ccccc2)cc1-c1nc2ccccc2n1C as the molecule, how does the Potency read?
A: inconclusive: 10 µM [rising, single point]

Q: For COc1cc(-c2nnc3sc(-c4cccs4)nn23)cc(OC)c1OC, which Potency is on record?
A: active: 1.58 µM

Q: Which activity change, negative = inhibition does the source give for C=CCn1cc(C(=O)NCc2ccco2)c(=O)c2cc(S(=O)(=O)N3CCCCCC3)ccc21 here?
A: inconclusive: -16.5%

Q: Which Potency does the source give for Cc1ccc2nc(CSc3nnc(-c4ccco4)o3)cc(=O)n2c1 here?
A: inconclusive: 6.31 µM [rising, partial curve]

Q: Which activity change, negative = inhibition does the source give for CCc1c(C(=O)NCCc2ccc(OC)c(OC)c2)[nH]c(C)c1C(C)=O here?
A: inconclusive: 17.9%

Q: For Cc1nnc(Nc2ccc3c(c2)OCO3)c2ccccc12, which Potency is on record?
A: inconclusive: 0.00316 µM [rising, full curve, poor fit]

Q: Which activity change, negative = inhibition does the source give for CC[C@H](C(=O)c1cccs1)C(O)(C(F)(F)F)C(F)(F)F here?
A: inactive: -1.42% [at 7.6 µM]

Q: With CCOC(=O)Cc1csc(NC(=O)CCN2C(=O)c3ccccc3C2=O)n1 as the molecule, how does the activity change, negative = inhibition read?
A: inactive

Q: Which activity change, negative = inhibition does the source give for Cc1noc(C)c1-c1cncnc1NCc1ccccc1 here?
A: inconclusive: 0.555%

Q: Which Potency does the source give for c1cncc(-c2cc(NCc3cccs3)ncn2)c1 here?
A: inconclusive: 12.6 µM [rising, single point]

Q: Which activity change, negative = inhibition does the source give for NCCOc1ccccn1 here?
A: inactive: 25.3% [at 7.6 µM]

Q: Which activity change, negative = inhibition does the source give for CCOC(=O)c1[nH]c(C)c(C(=O)OCC(=O)NC(=O)NC(C)(C)C)c1C here?
A: inconclusive: 26.9%

Q: For COCCCNC(=O)c1ccc(N2CCCC2)c(NS(=O)(=O)c2ccc(C)cc2)c1, which activity change, negative = inhibition is on record?
A: inconclusive: 3.83%

Q: With CCCCn1nc(C(=O)N2CCc3ccccc32)c2ccccc2c1=O as the molecule, how does the Potency read?
A: inconclusive: 12.6 µM [rising, single point]

Q: Which Potency does the source give for CN1CCc2c(sc3c2c(NCc2ccco2)nc2nnnn23)C1 here?
A: inconclusive: 15.8 µM [rising, single point]

Q: For CC(=O)N1CCCc2cc(S(=O)(=O)NCCC3=CCCCC3)ccc21, which activity change, negative = inhibition is on record?
A: inactive

Q: For COc1ccccc1CCn1c(=O)c(CCc2ccccc2)nc2cncnc21, which activity change, negative = inhibition is on record?
A: inconclusive: 11%

Q: With COc1ccc(-c2nc(CSCC(=O)NCc3ccco3)c(C)o2)cc1 as the molecule, how does the Potency read?
A: inconclusive: 3.98 µM [rising, single point]

Q: With COc1ccc(-n2c(N)c(Br)c(=O)[nH]c2=O)cc1 as the molecule, how does the Potency read?
A: inconclusive: 0.0398 µM [rising, full curve, poor fit]

Q: With COC(=O)c1c(NC(=O)CN2CCCC(C)C2)c2c(C)cccc2n1C (stereo not given) as the molecule, how does the activity change, negative = inhibition read?
A: inactive

Q: With Cc1cc(C)n(-c2nc3ccccc3nc2Nc2ccc3c(c2)OCO3)n1 as the molecule, how does the activity change, negative = inhibition read?
A: inconclusive: -1.45% [fluorescent]

Q: With COc1ccc(C)cc1NS(=O)(=O)c1ccc(NS(=O)(=O)c2ccc(NC(C)=O)cc2)cc1 as the molecule, how does the activity change, negative = inhibition read?
A: inconclusive: -9.85% [at 7.6 µM]

Q: For N#Cc1nc(-c2ccco2)oc1NCc1cccnc1, which Potency is on record?
A: inconclusive: 15.8 µM [rising, single point]

Q: Which Potency does the source give for C=CCn1c(=O)c2c(nc3n2CCN3c2cccc(Cl)c2C)n(C)c1=O here?
A: inconclusive: 2 µM [rising, partial curve]

Q: For COc1ccccc1-c1cncnc1NCCN1CCOCC1, which activity change, negative = inhibition is on record?
A: inactive

Q: Which activity change, negative = inhibition does the source give for COc1ccc2cc(CN(C(=O)Nc3ccccc3)C3CCCC3)c(=O)[nH]c2c1 here?
A: inconclusive: 20.7%

Q: With Cc1ccccc1-c1cc(N2CCN(C)CC2)ncn1 as the molecule, how does the activity change, negative = inhibition read?
A: inconclusive: 7.58%

Q: For O=C(Cn1cnc2c(cnn2-c2ccc(F)cc2)c1=O)NCc1ccco1, which activity change, negative = inhibition is on record?
A: inconclusive: -5.44%

Q: Which activity change, negative = inhibition does the source give for CC1(C)S[C@@H]2[C@H](NC(=O)[C@@H](N)c3ccc(O)cc3)C(=O)N2[C@H]1C(=O)O here?
A: inactive

Q: For C#CC(C)(CC)NC(=O)Cn1nnc(-c2ccc(S(C)(=O)=O)cc2)n1 (stereo not given), which activity change, negative = inhibition is on record?
A: inactive

Q: For Cc1ccc(C(=O)Nc2ccc3c(c2)OCO3)cc1S(=O)(=O)N1CCCCC1, which activity change, negative = inhibition is on record?
A: inconclusive: 25.1%

Q: For CCCCNC(=O)COC(=O)c1cc2c(C)nn(-c3ccccc3)c2s1, which Potency is on record?
A: active: 5.01 µM

Q: Which Potency does the source give for CCCOc1ccccc1C1CC(=O)Nc2cc3c(cc21)OCCO3 (stereo not given) here?
A: active: 6.31 µM

Q: With COc1cccc(Cn2c(=O)c(-c3ccccc3)nc3cnc(N4CCNCC4)nc32)c1 as the molecule, how does the Potency read?
A: inconclusive: 2.51 µM [rising, partial curve]

Q: Which Potency does the source give for O=C(Nc1cccnc1)c1cnn2cccnc12 here?
A: inconclusive: 10 µM [rising, single point]

Q: With Cn1ccnc1Sc1nc2ccccc2nc1NS(=O)(=O)c1ccccc1 as the molecule, how does the Potency read?
A: inconclusive: 2 µM [falling, single point]

Q: Which Potency does the source give for CCCNC(=O)c1c(N)n(-c2cccc(OC)c2)c2nc3ccccc3nc12 here?
A: inconclusive: 10 µM [rising, partial curve]

Q: For CCC(=O)NC(=Nc1nc2ccccc2s1)NC(=O)CC, which activity change, negative = inhibition is on record?
A: inconclusive: 8.84%

Q: With Cc1cc(O)c(C(C)(C)C)cc1Sc1cc(C(C)(C)C)c(O)cc1C as the molecule, how does the activity change, negative = inhibition read?
A: inconclusive: 17.5% [cytotoxic]

Q: Which activity change, negative = inhibition does the source give for O=c1[nH]c(=S)[nH]c(-c2ccccc2)c1Cc1c(O)ccc2ccccc12 here?
A: inactive: -8.51% [at 7.6 µM]

Q: Which Potency does the source give for CCOc1cc2c(C#N)c(N3CCOCC3)nc(N)c2c(N)n1 here?
A: active: 2.51 µM

Q: With CCCn1c(SCc2cc(=O)oc3ccc4ccccc4c23)n[nH]c1=O as the molecule, how does the activity change, negative = inhibition read?
A: inactive

Q: Which Potency does the source give for Cn1c(=O)cc(-c2ccccc2)c2ccccc21 here?
A: inconclusive: 12.6 µM [rising, single point]

Q: For O=C(NC1CCCc2ccccc21)C1CCC(CNc2c(N3CCOCC3)c(=O)c2=O)CC1 (stereo not given), which activity change, negative = inhibition is on record?
A: inactive

Q: With O=C(c1cnccn1)N1CCC2(CC1)CN(C(c1ccccc1)c1ccccc1)C2 as the molecule, how does the activity change, negative = inhibition read?
A: inactive

Q: For CCC(=O)c1ccccc1OCCN1C(=O)NC(C)(C)C1=O, which activity change, negative = inhibition is on record?
A: inconclusive: 15.4%

Q: Which activity change, negative = inhibition does the source give for COc1ccc2c(=O)c3c(=O)n(Cc4ccco4)c(C(C)C)nc3oc2c1 here?
A: inactive
